B1: G-protein coupled receptor 143 (Homo sapiens), P51810 (parent)
chain: MASPRLGTFCCPTRDAATQLVLSFQPRAFHALCLGSGGLRLALGLLQLLPGRRPAGPGSPATSPPASVRILRAAAACDLLGCLGMVIRSTVWLGFPNFVDSVSDMNHTEIWPAAFCVGSAMWIQLLYSACFWWLFCYAVDAYLVIRRSAGLSTILLYHIMAWGLATLLCVEGAAMLYYPSVSRCERGLDHAIPHYVTMYLPLLLVLVANPILFQKTVTAVASLLKGRQGIYTENERRMGAVIKIRFFKIMLVLIICWLSNIINESLLFYLEMQTDINGGSLKPVRTAAKTTWFIMGILNPAQGFLLSLAFYGWTGCSLGFQSPRKEIQWESLTTSAAEGAHPSPLMPHENPASGKVSQVGGQTSDEALSMLSEGSDASTIEIHTASESCNKNEGDPALPTHGDL
partner: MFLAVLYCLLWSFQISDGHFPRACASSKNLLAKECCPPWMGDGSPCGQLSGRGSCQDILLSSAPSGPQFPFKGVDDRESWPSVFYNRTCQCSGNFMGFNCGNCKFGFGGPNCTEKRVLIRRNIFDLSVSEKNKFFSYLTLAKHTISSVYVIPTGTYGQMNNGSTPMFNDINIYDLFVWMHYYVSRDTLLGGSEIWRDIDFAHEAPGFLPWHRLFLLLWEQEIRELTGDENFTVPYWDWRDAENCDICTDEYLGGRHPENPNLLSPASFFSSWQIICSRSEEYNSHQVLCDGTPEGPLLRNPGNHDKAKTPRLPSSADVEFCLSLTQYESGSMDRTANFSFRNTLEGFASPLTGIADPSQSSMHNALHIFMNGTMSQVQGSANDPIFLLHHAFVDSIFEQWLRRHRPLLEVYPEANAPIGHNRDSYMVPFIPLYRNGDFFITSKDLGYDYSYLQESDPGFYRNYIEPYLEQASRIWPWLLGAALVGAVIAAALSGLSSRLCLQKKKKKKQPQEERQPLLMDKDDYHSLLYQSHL
B2: G-protein coupled receptor 143 (Homo sapiens), P51810 (parent)
chain: B1 chain
partner: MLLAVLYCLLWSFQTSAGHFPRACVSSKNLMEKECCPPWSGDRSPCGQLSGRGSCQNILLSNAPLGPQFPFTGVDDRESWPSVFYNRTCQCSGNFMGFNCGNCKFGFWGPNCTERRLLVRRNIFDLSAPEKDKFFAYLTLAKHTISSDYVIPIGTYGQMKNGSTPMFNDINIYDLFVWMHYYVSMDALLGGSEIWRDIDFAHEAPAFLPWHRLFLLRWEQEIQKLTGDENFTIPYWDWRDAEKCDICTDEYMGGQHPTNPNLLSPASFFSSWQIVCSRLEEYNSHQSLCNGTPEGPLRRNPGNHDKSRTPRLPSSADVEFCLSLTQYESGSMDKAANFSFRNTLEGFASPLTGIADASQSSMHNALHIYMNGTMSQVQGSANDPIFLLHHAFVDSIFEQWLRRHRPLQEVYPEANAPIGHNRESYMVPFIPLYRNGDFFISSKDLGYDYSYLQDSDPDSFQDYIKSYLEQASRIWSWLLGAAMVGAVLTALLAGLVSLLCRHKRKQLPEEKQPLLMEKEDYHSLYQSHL

The variants in the first test derive from B1. As to conditions: with tyro_mouse Tyr.
On to L223A;L224A;W329A;E330A, for which the “effect of a mutation on the interaction” value is recorded as “with no effect”.

In a further test the parent is B2. To be noted: with tyro_human TYR.
For L223A;L224A;W329A;E330A, the “effect of a mutation on the interaction” value was “with no effect”.

These data come from IntAct's records for PubMed 27720922.
